Laboratory results from patent US20170137520A1 (Merck Sharp & Dohme, published 2017).

T1: human LAG3 on CHO-K1 cells (huLag-3+ CHO-K1 cells) (human, UniProt P18627 23-525)
T1 construct: whole, on cells
T1 sequence (looked up): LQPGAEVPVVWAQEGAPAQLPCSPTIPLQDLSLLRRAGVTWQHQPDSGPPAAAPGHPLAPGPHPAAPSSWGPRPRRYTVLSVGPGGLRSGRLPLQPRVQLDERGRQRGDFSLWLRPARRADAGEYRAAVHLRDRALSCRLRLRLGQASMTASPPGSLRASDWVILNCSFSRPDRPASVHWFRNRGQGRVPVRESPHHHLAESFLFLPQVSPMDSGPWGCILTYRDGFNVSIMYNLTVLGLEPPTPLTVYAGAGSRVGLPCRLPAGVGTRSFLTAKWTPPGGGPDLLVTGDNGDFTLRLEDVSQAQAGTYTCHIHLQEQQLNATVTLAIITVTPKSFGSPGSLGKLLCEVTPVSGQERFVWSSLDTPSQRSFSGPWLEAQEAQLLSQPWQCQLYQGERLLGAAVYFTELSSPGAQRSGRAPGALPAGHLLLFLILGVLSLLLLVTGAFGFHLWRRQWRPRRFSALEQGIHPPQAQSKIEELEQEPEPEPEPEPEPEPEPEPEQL

T2: human CTLA-4 expressed on cell surface (hCTLA4-overexpressing CHO-K1 cells) (human, UniProt P16410 36-223)
T2 construct: The construct expressed in the cells is not described further; also called huCTLA-4+ CHO-K cells; CTLA-4+ CHO-K1 cells
T2 sequence: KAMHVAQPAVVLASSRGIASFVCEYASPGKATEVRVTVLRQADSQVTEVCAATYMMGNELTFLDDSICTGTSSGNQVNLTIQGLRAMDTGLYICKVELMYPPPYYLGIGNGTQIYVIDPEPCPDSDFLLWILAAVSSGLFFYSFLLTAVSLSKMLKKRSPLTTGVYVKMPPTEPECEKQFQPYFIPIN


What was measured:
Human serum albumin = target: T3, Human serum albumin (human, UniProt P02768); assay: SPR, Biacore T100
Sequence of Human serum albumin (P02768 25-609 limits assumed): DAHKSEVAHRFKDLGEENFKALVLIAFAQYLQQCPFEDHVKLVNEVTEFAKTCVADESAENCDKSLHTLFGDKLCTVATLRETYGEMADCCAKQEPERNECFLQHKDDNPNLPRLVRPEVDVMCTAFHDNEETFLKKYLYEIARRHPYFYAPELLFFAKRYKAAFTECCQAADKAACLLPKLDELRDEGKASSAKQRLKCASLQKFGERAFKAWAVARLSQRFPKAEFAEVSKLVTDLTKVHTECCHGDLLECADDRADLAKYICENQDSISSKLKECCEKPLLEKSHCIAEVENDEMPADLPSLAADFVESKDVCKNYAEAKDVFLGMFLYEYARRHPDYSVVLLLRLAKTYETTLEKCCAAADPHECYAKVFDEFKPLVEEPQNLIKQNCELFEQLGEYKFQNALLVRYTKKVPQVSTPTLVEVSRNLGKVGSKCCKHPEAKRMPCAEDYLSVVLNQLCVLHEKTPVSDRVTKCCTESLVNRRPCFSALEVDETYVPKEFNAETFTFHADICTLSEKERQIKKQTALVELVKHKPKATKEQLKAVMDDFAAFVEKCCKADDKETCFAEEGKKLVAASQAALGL
T3 construct: also called HSA; human albumin

[1] = target: T4, Rhesus monkey serum albumin (rhesus monkey, UniProt Q28522 17-600); assay: SPR, Biacore T100
T4 construct: also called Rhesus serum albumin; rhesus monkey albumin
T4 sequence (Q28522 17-600 limits assumed): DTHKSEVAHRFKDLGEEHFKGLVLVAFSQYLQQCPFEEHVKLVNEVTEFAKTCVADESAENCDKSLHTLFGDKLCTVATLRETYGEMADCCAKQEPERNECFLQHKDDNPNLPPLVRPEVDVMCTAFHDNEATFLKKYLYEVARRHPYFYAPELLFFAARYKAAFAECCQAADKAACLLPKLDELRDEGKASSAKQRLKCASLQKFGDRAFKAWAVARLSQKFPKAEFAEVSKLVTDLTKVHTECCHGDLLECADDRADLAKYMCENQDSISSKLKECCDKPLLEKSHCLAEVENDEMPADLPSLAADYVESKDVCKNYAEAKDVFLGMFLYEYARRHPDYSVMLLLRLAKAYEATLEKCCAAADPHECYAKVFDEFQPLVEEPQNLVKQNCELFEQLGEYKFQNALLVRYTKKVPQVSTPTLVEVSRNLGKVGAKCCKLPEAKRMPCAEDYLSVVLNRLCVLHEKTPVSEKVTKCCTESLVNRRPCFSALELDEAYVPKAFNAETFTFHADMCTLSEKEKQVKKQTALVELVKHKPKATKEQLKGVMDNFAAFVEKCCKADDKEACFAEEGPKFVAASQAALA

Mouse serum albumin = target: T5, Mouse serum albumin (mouse, UniProt P07724 25-608); assay: SPR, Biacore T100
T5 construct: also called Mouse plasma albumin; mouse albumin

[2] = target: T1, human LAG3 on CHO-K1 cells (huLag-3+ …); assay: flow cytometry (bFACS) on CHO-K1 huLAG3 cells; MedianFI (PE)
Protocol: (§1) Specificity assessment F023700925 predicted selective binding to CTLA-4 and PD-1. Specificity assessment against BTLA, CD8, CTLA4, LAG3, and CD28 was performed on overexpressing cells using flow cytometry, whereas ICOS binding was evaluated in ELISA as a recombinant protein (hICOS-hFc). Expression of BTLA, CD8, PD1, CTLA4, LAG3, CD28 was assessed via directly-labelled target-specific Abs. Anti-hICOS and anti-hCTLA4/anti-hPD1 positive controls were all positive. […] No binding to BTLA, CD8, LAG3, CD28 could be observed for F023700925, whereas potent binding of F023700925 was observed on PD-1+ or CTLA-4+ CHO-K1 cells. vThe flow cytometry data generated in this experiment are in FIG. 11 (A-H).

[3] = target: T6, human BTLA on CHO-K1 cells (huBTLA+ CHO-K1 cells) (human, UniProt Q7Z6A9 31-289); assay: flow cytometry (bFACS) on CHO-K1 huBTLA cells; MedianFI (PE)
T6 construct: whole, on cells
Protocol: as §1

[4] = target: T2, human CTLA-4 expressed on cell surface …; assay: flow cytometry (bFACS) on CHO-K1 huCTLA4 cells; MedianFI (PE)
Protocol: as §1

[5] = target: T7, human CD28 on L cells (huCD28+ L cells) (human, UniProt P10747 19-220); assay: flow cytometry (bFACS) on L cells expressing huCD28; MedianFI (PE)
T7 construct: whole, on cells
T7 sequence (P10747 19-220): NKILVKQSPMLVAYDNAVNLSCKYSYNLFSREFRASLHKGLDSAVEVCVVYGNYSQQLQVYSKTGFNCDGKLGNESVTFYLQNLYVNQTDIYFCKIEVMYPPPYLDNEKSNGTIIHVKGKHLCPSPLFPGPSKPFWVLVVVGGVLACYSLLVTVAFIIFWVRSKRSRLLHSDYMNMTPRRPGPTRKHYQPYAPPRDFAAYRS
Protocol: as §1

[6] = target: T8, human CD8alpha on L cells (huCD8alpha+ L cells) (human, UniProt P01732 22-235); assay: flow cytometry (bFACS) on L cells expressing huCD8alpha; MedianFI (PE)
T8 construct: whole, on cells
T8 sequence (P01732 22-235): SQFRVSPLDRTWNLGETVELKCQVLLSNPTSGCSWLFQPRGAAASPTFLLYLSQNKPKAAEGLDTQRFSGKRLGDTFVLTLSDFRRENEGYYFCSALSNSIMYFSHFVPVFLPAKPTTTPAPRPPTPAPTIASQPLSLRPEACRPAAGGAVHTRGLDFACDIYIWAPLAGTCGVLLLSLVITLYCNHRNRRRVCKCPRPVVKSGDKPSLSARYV
Protocol: as §1

[7] = target: T2, human CTLA-4 expressed on cell surface …; assay: flow cytometry (bFACS) on CHO-K1 cells overexpressing human CTLA4; Nanobody detected via ALB11-binding mAb ABH0074; MedianFI (PE)
Text: Binding of F023700918 (filled squares), F023700925 (filled triangles), F023700912 (filled circles) and an irrelavant Nb (diamonds) to hCTLA4-overexpressing CHO-K1 cells was studied by flow cytometry. Nanobodies were detected via the ALB11-binding mAB ABH0074. The flow cytometry data generated in this experiment are in FIG. 8.

[8] = target: T9, human PD-1 expressed on cell surface (hPD1-overexpressing CHO-K1 cells) (human, UniProt Q15116 25-288); assay: flow cytometry (bFACS) on CHO-K1 cells overexpressing human PD1; Nanobody detected via ALB11-binding mAb ABH0074; MeanFI (PE)
T9 construct: The construct expressed in the cells is not described further; also called huPD-1+ CHO-K1 cells; PD-1+ CHO-K1 cells
T9 sequence (Q15116 25-288 limits assumed): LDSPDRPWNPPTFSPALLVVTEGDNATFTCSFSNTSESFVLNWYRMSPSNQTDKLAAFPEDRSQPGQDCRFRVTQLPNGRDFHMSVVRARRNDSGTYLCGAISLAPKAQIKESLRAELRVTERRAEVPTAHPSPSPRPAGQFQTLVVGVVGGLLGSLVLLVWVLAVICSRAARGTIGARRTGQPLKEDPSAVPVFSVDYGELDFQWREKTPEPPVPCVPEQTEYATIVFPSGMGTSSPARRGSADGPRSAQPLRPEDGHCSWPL
Text: Binding of batches of F023700925 (filled squares) and F023700912 (filled circles) and irrelavant Nb IRR00051 (filled triangles) to hPD1-overexpressing CHO-K1 cells was studied by flow cytometry. Nbs were detected via the ALB11-binding mAB ABH0074. The flow cytometry data generated in this experiment are in FIG. 9.

Row | Binder | Kd (Human serum albumin) [nM] | koff (Human serum albumin) [s⁻¹] | kon (Human serum albumin) [M⁻¹ s⁻¹] | Kd [1] [nM] | koff [1] [s⁻¹] | kon [1] [M⁻¹ s⁻¹] | Kd (Mouse serum albumin) [nM] | koff (Mouse serum albumin) [s⁻¹] | kon (Mouse serum albumin) [M⁻¹ s⁻¹] | binding result [2] | binding result [3] | EC50 (read off the curve) [4] [nM] | binding result [5] | binding result [6] | EC50 (read off the curve) [7] [nM] | EC50 (read off the curve) [8] [nM]
1 | F023700912, 11F01 (E1D,L11V,A14P,Q45R,A74S,K83R,V89L,M96P,Q108L)-35GS-11F01 (L11V,A14P,Q45R,A74S,K83R,V89L,M96P,Q108L)-35GS-ALB11002-A (VHH, also called CTLA4 Nanobody F023700912; anti-hCTLA4 Nanobody) DVQLVESGGGVVQPGGSLRLSCAASGGTFSFYGMGWFRQAPGKEREFVADIRTSAGRTYYADSVKGRFTISRDNSKNTVYLQMNSLRPEDTALYYCAAEPSGISGWDYWGQGTLVTVSSGGGGSGGGGSGGGGSGGGGSGGGGSGGGGSGGGGSEVQLVESGGGVVQPGGSLRLSCAASGGTFSFYGMGWFRQAPGKEREFVADIRTSAGRTYYADSVKGRFTISRDNSKNTVYLQMNSLRPEDTALYYCAAEPSGISGWDYWGQGTLVTVSSGGGGSGGGGSGGGGSGGGGSGGGGSGGGGSGGGGS[about 120 residues left out] | 93 | 0.0088 | 94000 | 93 | 0.0089 | 95000 | 1500 | 0.18 | 120000 | no binding (tested: 10^-6 M) | no binding (tested: 10^-6 M) | ~0.1 | no binding (tested: 10^-6 M) | no binding (tested: 10^-6 M) | ~0.2 | –
2 | F023700925 (VHH, also called pentavalent […] Nanobody) DVQLVESGGGVVQPGGSLRLSCAASGSIASIHAMGWFRQAPGKEREFVAVITWSGGITYYADSVKGRFTISRDNSKNTVYLQMNSLRPEDTALYYCAGDKHQSSWYDYWGQGTLVTVSSGGGGSGGGGSGGGGSGGGGSGGGGSGGGGSGGGGSEVQLVESGGGVVQPGGSLRLSCAASGSIASIHAMGWFRQAPGKEREFVAVITWSGGITYYADSVKGRFTISRDNSKNTVYLQMNSLRPEDTALYYCAGDKHQSSWYDYWGQGTLVTVSSGGGGSGGGGSGGGGSGGGGSGGGGSGGGGSGGGGSEVQLVESGGGVVQPGGSLRLSCAASGGTFSFYGMGWFRQAPGKEREFVADIRTSAGRTYYADSVKGRFTISRDNSKNTVYLQMNSLRPEDTALYYCAAEPSGISGWDYWGQGTLVTVSSGGGGSGGGGSGGGGSGGGGSGGGGSGGGGSGGGGSEVQLVESGGGVVQPGGSLRLSCAASGGTFSFYGMGWFRQAPGKEREFVADIRTSAGRTYYADSVKGRFTISRDNSKNTVYLQMNSLRPEDTALYYCAAEPSGISGWDYWGQGTLVTVSSGGGGSGGGGSGGGGSGGGGSGGGGSGGGGSGGGGS[about 120 residues left out] | 220 | 0.0076 | 34000 | 240 | 0.0081 | 33000 | 3100 | 0.15 | 48000 | no binding (tested: 10^-6 M) | no binding (tested: 10^-6 M) | ~0.2 | no binding (tested: 10^-6 M) | no binding (tested: 10^-6 M) | ~0.3 | ~1
3 | F023700918 (VHH) DVQLVESGGGVVQPGGSLRLSCAASGSIASIHAMGWFRQAPGKEREFVAVITWSGGITYYADSVKGRFTISRDNSKNTVYLQMNSLRPEDTALYYCAGDKHQSSWYDYWGQGTLVTVSSGGGGSGGGGSGGGGSGGGGSGGGGSGGGGSGGGGSEVQLVESGGGVVQPGGSLRLSCAASGSIASIHAMGWFRQAPGKEREFVAVITWSGGITYYADSVKGRFTISRDNSKNTVYLQMNSLRPEDTALYYCAGDKHQSSWYDYWGQGTLVTVSSGGGGSGGGGSGGGGSGGGGSGGGGSGGGGSGGGGSEVQLVESGGGVVQPGGSLRLSCAASGGTFSFYGMGWFRQAPGKEREFVADIRTSAGRTYYADSVKGRFTISRDNSKNTVYLQMNSLRPEDTALYYCAAEPSGISGWDYWGQGTLVTVSSGGGGSGGGGSGGGGSGGGGSGGGGSGGGGSGGGGS[about 120 residues left out] | – | – | – | – | – | – | – | – | – | – | – | – | – | – | ~2 | –
